Measurements from the RNAGym collection of RNA variant scans (doi:10.7554/elife.90254).
The source gives no read counts; variants with many changes may rest on few reads.

B1: LINE1-mini (parent)
chain: GGCAGAGCUCAACACAGCGUGGCAAAGUGGCUGUGGCUAGACUGCC

Variants of: B1
Experiment: self-cleavage, relative activity (ratio to wild type); higher = more cleavage; in vitro, sequencing; the parent is a self-cleaving ribozyme

| Variant | self-cleavage |
| --- | --- |
| GGCAAAGCUCAACACGGCGUGGCAGAGUGGAUGUGGCUAGACUGCC | 0.02 |
| GACAGAGAUCAACACAGCGUGGCAAAGUAGCUGUGGCUAGACUGCC | 0.54 |
| GGAAGAGCUCAACACAGCGUGGCAGAGUGGAUGUGGCUAGACUGCC | 0.4 |
| GGACGAGCUCAACACAGCGUGGCAAAGUGGCUGUGGCUUGACUGCC | 0.19 |
| GGCAGAGCUCAACACAGCGUGGCAACGUGGCUGUGGCUAGUCUACC | 0.06 |
| GGCAGAGCUCAACACAGCGUUGCAAAGUGGCUAUGGCUAGACUGCG | 0.04 |
| GGCAGAGCUCAACCCAGCGUGGCAAAGUAGCUGUGGCUAGACUUCC | 0.12 |
| GGCAGCGCUCAACACAGCGUUGCAAAGAGGCUGUGGCUAGACUGCC | 0.09 |
| GGCAGAGCUCAACACAGCGUGUCAAAGUGGCUGUGGGUAGACUGAC | 0.05 |
| GGCAGAGGUCAACACAGCGUGGCAAAGUGGCAGUGGCUAGUCUGCC | 0.01 |
| GGCAGACCUCACCACAGCGUGUCAAAGUGGCGGUGGCUAGACUGCC | 0.07 |
| GGGAGAGCUCAACACAGCGUUGAAAAGGGGCUGUGGCUAGACUGCC | 0.27 |
| AGCAGAGCUAAACACAGCGUGUCAAAGUGGCUGGGGCGAGACUGCC | 0.07 |
| GGCAAAGUUCAACACAGUGUGGCAAAGUGGCCGUGGCUAGACUGCC | 0.05 |
| GGCAGAGCUCAACACCGCGUCGCAAAGUGGCUGUGGCUCGACUGCC | 0.06 |
| GGCAGAGUUCAACACAGCGUGGCAAAGUAGCUGUGGCUAGACUGAG | 0.03 |
| UGCAGAGAUCAACACAGCGUGGCAAAGUGGUUGUGGCUAGACUUCC | 0.02 |
| CGCAGAGCUCAACACAGCGUGGCAAAGAGGCUGUGGGUAUAUUGCC | 0.11 |
| GGCACAGCUAAUCACAGCGUGGCAAAGUGGCUCUGCCUAGACUGCC | 0 |
| GGCAGAGCUCAACACAGCGUGGCAAAGUUGCUGUGGCGGGACUGCC | 0.01 |
| GGCAGAGGGCUACACAGCGUGGCAAAGUGGCUGUGGCUAGGCUGCC | 0.01 |
| UGCCGAGCUCAACACAGCGUGGCAAAUAGGCUGUGGCUAGGCUGCC | 0.01 |
| GGCAGAGCUCAACAUAGUGUGGCAAAGUGGCUGUGGAUAGACUGCC | 0.05 |

| Variant | self-cleavage |
| --- | --- |
| GGCAGAGCUCAACACAGCGUGGCAAAGUAGCGGUGGCUAUACUGCC | 0.05 |
| GGCAGAGCCCAAGACAGCGUGGCAAAGUGGCUUUGGAUAGACUGCC | 0.06 |
| GUCGGAGCUCAACAAAGCGUGGGAAAGUGGCUGUGGCUAGACUGCC | 0.06 |
| GGCAGAGCUCGACACAGCGUCGCUUAGUGGCUAUGGUUCGACUGCC | 0 |
| GGCAGAGCUCAUGACAGCGUGGUAAAGUGGCUGUGGGUAGACUGCC | 0.02 |
| AUCAGAGCUCAACACAGCGUGGCAAAGGGGCCGUGGCUAGACUGCC | 0.09 |
| GGCAGUGCUCAACCCAGCGUGGUAAAGAGGCUCUGGCUAGACUGCC | 0.01 |
| GGUGGAUCUCCACACAGCGUGGCAAAGUGGAUGUGGCUAGACUGCC | 0.03 |
| GGCUGAGCUCAACACAGCGUGGCAAAGUGCCUGUGGCUAGACUGGC | 0.07 |
| GGCAGAGCUCAAAACAGCGUGGUAAAGUGGCUGUGGCUAGUCUGCC | 0.38 |
| GGCAGAGCUCAACACAGCGUGGCAAACUGGCUGUUGCUACACUGCC | 0.1 |
| GGCAGAGCUCAAUACAGUGUGGCAAAGUGGCUGUGGCUAGAUUGCC | 0.03 |
| GGCAGAGAGCAACACAGCUUGGCAAAGUGGCUGUGGCUAGACUGCC | 0.03 |
| GGCAGAGCUCAACUCAGCGUGGCAAAGUGGCUGUGACUAGAGAGCC | 0.01 |
| GGCAGAGUUAAACACCGCUUGGCAAAGUGGCUGUGGCUAGACUGCC | 0.02 |
| GGAAGAGCUAAACACAGCUUGGCAAAGUGGCUGUCGUUAUACUGCC | 0.02 |
| GGCAGAGCUCAACAGAGCGUGGCAAAGUGCCGGUGGCUAGACUGCC | 0 |
| GGCGGAGCUCAACACAGCGUGGCAUAGCGGUUGUGGCUAGACUGCC | 0.25 |
| GGCAGUGCUCAACACAGCUUGGCAAAGAGGCUGUGGCUAGACUGCC | 0.28 |
| GGCAGAGCUUCACACAGCGUGGCAAAGUGGCUGUGGCUAUACUGCC | 0.04 |
| GGCAGAACUCAACACAGCGUGGCAAAGUGGCUUUGGCUAGUUUGAC | 0.16 |
| GGCAGAGCUCAACACAGCGUGGGGAAGUGGCGGUGGCUAGACUUCC | 0.04 |
| GGCAGAGUUAAAACCAACGGGGCAAAGUGGCUGUGGCUAGACUGCC | 0.01 |

| Variant | self-cleavage |
| --- | --- |
| GGCAGCGCUCAACACAGCAUGGCACCGUGGCUGUGGCUAGACAGCC | 0.02 |
| GGCAGAGAUCAACACAGGGUGGCAAAGUGGCUGUGGCUAGCCUGCC | 0.02 |
| GGCAGAGCUCAACAGAACGUGGCAAAGUGGCUGUGGCUUGACUGCC | 0.03 |
| GGCAGAGCUCAACUCAGCGUGGAAAAGUGGCUGUGGCCAGACUGAC | 0.16 |
| GGCAGAGACCAACACAGCGUGGCAAAGUGGCUGUGGUUAGACUGUC | 0.12 |
| GGCAGAGCUAAACACAGCGUGGCAAAGGGGCUGUAGCUAGACUGCC | 0.01 |
| GGCAGAGCUCGACACAGCGUGGCAAAGGGGUUGUGGCUAGUCUGCC | 0.02 |
| GGCAGAGCUGAACUCAGCCUGGCAAAGUGGCUGUGGCUAGACUGCC | 0.01 |
| GUCAGAGCUCAAGACAUCGUGGCAAAAUUGCUGUGGCUAAACUGCC | 0.06 |
| GGCACAGCUCAACACAGCGUAGCAAAUUGGCUCUGGCCAGACUGCC | 0.01 |
| GGCAGAGCUCAACACAGCGUGGAAAACUGGCUGUCCCUAGACUGCC | 0.12 |
| GGCAGAGCUCAACACAGCGUAGCAUAGUGGCUGUGGCUAUACUCCC | 0.82 |
| GGCAGAGCUCAACACAGCGUGGCAAAGUGGCUGUGGUUAGCCUGCU | 0.02 |
| GGAGGAGCUCAACACAGCGUGGCAAACUGGCUGUGGCUAGAUUGCC | 0.09 |
| GGCAGAGCUCGACACAGCGUGGCAAAGUGGCUGUGCGUAGACUGCC | 0 |
| GGCAGAGCUCAACCCAGCGUGGCAAAGUGGCUGUGGUCAGACAGCC | 0.02 |
| GGCAGAGCUCAACACAACGUGGCAAAGUGGCUGUGGCUAGAGUGGC | 0.03 |
| GGCAGAGGUCAACACAGCGUGGCAAAGUGGCUGUGCCUGGAUUGCC | 0.04 |
| GGCAGAGCUUAACUCAGCGUGGCAAAGAGGCUGUGGCUAGACUGCC | 0.34 |
| GGCAGAGCUCAACACAGCGUGGCAAAAUGGCUUUGGCGAGACUGCC | 0.05 |
| GGCGGAGCUCAAUAGAGCGUGGCAAAGUGGCUUUGGCUAGACUGCC | 0.01 |
| GGCAGGGCUCAACACAGCGUGGCAAAGUGGAUGUGGGUAGACUCCC | 0.03 |
| GGCAGAGCUCAACACACCGCGGCAAAGUGUCUGUGACUAGACUUAC | 0.02 |

| Variant | self-cleavage |
| --- | --- |
| GGCCGAGCUCAACACUGCGUGGCAACGUGGCUGUGGCUAGACUCCC | 0 |
| GGCAGAGCUCUUCACAGCGUGGCGAAGUGGCUGUGACUAGACUGCC | 0.02 |
| GGCUGAGCUCAACACAGCGUGGAAAAGUGGCUGUGGCUAGACUGAC | 0.14 |
| CGCAGAGCAUAACACAGCGUGGCAAAGUGGCUGUGGCUAGACUGCC | 0.01 |
| GGCAGACCUCAACACAGCGUGGCAAAGUCGCUGUGGCAACACUGCC | 0.06 |
| GGAAUAGCUCAACACAGCGUGGCAAAGUGGCUGUGUCUAGAUUGCC | 0.71 |
| GGCAUAGCUCUAUACAGGGUGGCAAAGUGUCUGUGUCUAGACUGCC | 0.02 |
| GCCAGAGCUCAACACAGCGUGGCAAAGAAGCUGUGGCUAGACUUCC | 0.03 |
| GGCAGAACUCAACACAGCGUUGCAAAGUGGAUGUGGCUAGACUGCC | 0.03 |
| GCCCGAGCUCAAGACAGCGUAGCAAAGUGGCUGUUGCUAGACCGCC | 0.02 |
| GGCAGAGCUAAACACAGCGUGGCUAAGUUGCAGUGGCUAGACUGCC | 0.02 |
| GGCAGAGCUCAACACAGCGUGGCAAAGUGGCUGUGGUAGGACUGCC | 0.05 |
| GGCAGAGCUCAACAUAGCGUGGCAAAGUGGGUGUGGCUGGACUGCC | 0.02 |
| GGCAGAGCUCAACACAUCGUGGCAAAGUGGCUGUGGCUAAACUGCG | 0.01 |
| GGCAGAGCUCAAGACAGUGUGGCAAAGUGGCUGGGGCUAGACUGCC | 0 |
| GGCAGAGCUCAAAACAACGUGCCAAAGUGGCUGUGGCUAGACUGCC | 0 |
| GUCAGAGCUCAACACAGCGUGGCAAAGUGGCUGUUACUUGACUGCC | 0.03 |
| GCCAGCCCUCAACACAGCGUGGCAAAGUGGCUGUGGCUAGACUGCC | 0.08 |
| GGCCGAGCUCAACACAGCGUAGGAAAGUGGCUGUGGCUAGACUGCC | 0.7 |
| GGCAGAGCUCAACACAUAGUGGUAAAGUGGCUGUGGCUAGACUGCC | 0.02 |
| GGCAGAUCUCAACACAGCGGGGCUAAGUAGCUGUGGCUAGACUGCC | 0.04 |
| GGCAGAGCUCAACACAGCGUUGCAAAGUGGCUGUGGCGAGACUGCU | 0.07 |
| GGCAGAGCGCAUCACAGCGUGGCUAAGUGGCUGUGGCUAGACUGCC | 0.05 |

| Variant | self-cleavage |
| --- | --- |
| GGCAGAGCUCAGCACAGCGUGCCAAAGUGGCUGUCGCUGGACUGCC | 0.02 |
| GGCAGAGCUCAACACAGAGUGCCAAAGUGGCUGUGGCUACACUGCC | 0.07 |
| CGGAGAGCUCAACACAGCUUGGCAAAGUGGCUGUGGCUAGACUGCC | 0.09 |
| GGCAGAGCUCAAUACAGCGUGGCAGAGUGCCUGUCGCUAGACUGAC | 0.03 |
| GGCAGAGAUCAACACAGCGUGGAAAAGUGGCUGUGGCUAGACGGCC | 0.02 |
| GGCAGGGCUAAACACAGCGUUGCAAAGUGGCUGUGGCUAGACUGCC | 0.02 |
| GGCAGAGCUCAACACACCGUGGCAAAAAGCUUGUGGCUAGACUGCC | 0.61 |
| GGCAGAGCUCAAAACAGCGUCGCUAAGAGGCUGUGGCUAGACUGCC | 0.04 |
| GGCACAGCUCAAAACAGCGUGGCUAAGUGGCUGUGGCUUGACUGGC | 0.01 |
| GGCAGAGCUCUAAACAGCGUGGCAACGUGGCUGCGGCUAGCCUGCC | 0 |
| GGCAGAGCUCAACACAGCGUGGCAAAGUGCCUGUGGUCAGACUGCC | 0.06 |
| GGCAGCGCUUAACACAGCGGGGCAAAGUGGCUGUGCCUAGCCUGCC | 0.01 |
| GGCAGAGCUCAACACACCGUCGCAAAGUGGCUGUGGAUAGACUGCC | 0.01 |
| GGCAGAGCUCAAAACAGCGAGGCUAAUUGGCUGUGGCUAGACAGCC | 0.02 |
| GGCAGCGCUCAACACAGCGUGGCACAGUGGCUGUGGCUAGACUUCC | 0.15 |
| GGCAGAGCUCAACACAUCGUGGCAAAGUGGCUGUGGCUUGACCGCC | 0.02 |
| GCCAGAGCUCAUCACAGCAUGGCAAAGUGGCUGUGGCUAGACUGCC | 0.04 |
| GGCACAGCUCAACAGAUCGUGGCAAAGUUCCUGUGGCUUGACUGCC | 0.02 |
| GGCAGAGCUCAACACAGCGUAACAAAGUGGUUGUGGCUAGACUGCC | 0.29 |
| GGCAGAGCUCAACACAGCGCGGCAAAGUUGCUGCGGCAAGACUGCC | 0.03 |
